# Laboratory results: PubChem BioAssay AID686979 (National Center for Advancing Translational Sciences (NCATS), 2013)
# Among all 420,000 compounds or so, about 50,000 (12%) were called active. This list was built around the results that the source calls inconclusive (neither active nor inactive); the mix of calls is not that of the screen. Calls come from the whole dose curve; as a rule, active = well fitted inhibition curve with a large enough effect; inconclusive = small, poorly fitted or top-dose-only effect; inactive = flat fitted curve, though single readings scatter. Potencies of inconclusive entries are left out as doubtful fits.
# Test: qHTS for Inhibitors of human tyrosyl-DNA phosphodiesterase 1 (TDP1): qHTS in cells in presence of CPT; note: nearly all actives have a fitted effect of over 55% in size
# Details: chicken DT40 Tdp1-/-;hTDP1 cells + 20 nM CPT, ATP luminescence, 48 h; activity change, negative = growth inhibition: at 46.2 µM (top of the series) unless noted
# Outline: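 Chicken DT40 Tdp1-/- cells stably complemented with human TDP1 were seeded at 400 cells/well in medium containing 20 nM camptothecin, exposed to pin-transferred compounds, and grown at 37 °C for at least 48 hr. Viability was read as ATP luminescence.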
# % is set by controls: 0 for no effect and ±100 for the full control effect; potency is the fitted concentration of half-maximal effect; tags give direction and shape of the fitted curve.
SMILES,Potency,"activity change, negative = growth inhibition"
CCn1cc(C(=O)NCc2ccco2)c(=O)c2cc(F)c(N3CCN(C(=O)c4ccco4)CC3)cc21,active: 20.6 µM,
O=C(NN1C(=O)/C(=C/c2ccc(O)cc2)SC1=S)c1cccc(O)c1,,inconclusive: -33.2% [inhibitor]
COc1ccc(-c2noc(CSc3nnc(Cc4ccccc4)n3-c3ccccc3)n2)cc1OC,active: 23.1 µM,
CCCCC(=O)NC(c1cccc([N+](=O)[O-])c1)c1ccc2cccnc2c1O (centres undefined),active: 3.66 µM,
CCOC(=O)c1cc(-c2ccccc2)n(CC(=O)NC2CCC(C)CC2)c1C (centres undefined),active: 14.6 µM,
COc1ccc2[nH]cc(C(=O)CN3CC(C)CC(C)C3)c2c1 (centres undefined),,inactive: 16.3%
O=C(COc1ccc2ccccc2c1)Nc1nnc(-c2ccco2)s1,,inactive: -16.3%
COc1ccc(CN2CCCC(C(=O)N3CCCC3)C2)cc1 (centres undefined),,inactive: 1.98%
O=C(NC1CC(=O)N(c2ccc3c(c2)OCCO3)C1)c1c(F)cccc1Cl (centres undefined),,inactive: 6.04%
c1ccc(CCC2CCCCN2Cc2nc(-c3ccc4c(c3)OCO4)no2)nc1 (centres undefined),active: 16.4 µM,
CCCc1nn(C)c(C(N)=O)c1[N+](=O)[O-],,inactive: 13.2%
CC(C)Oc1ccc2c(=O)c(-c3ccccc3)coc2c1,"inconclusive [inhibitor, single point]",
COc1ccc(NC(=O)Cn2c(=O)cc(C)c3c(C)nn(-c4cccc(Cl)c4C)c32)cc1OC,,inactive: -8.29%
Cc1cc2nc3s/c(=C/c4ccc(-c5ccccc5C(=O)O)o4)c(=O)n3c2cc1C,"inconclusive [inhibitor, single point]",
O=[N+]([O-])/C=C1\C=CC=CN1Cc1ccc(Cl)cc1,,inconclusive: -31.5% [inhibitor]
O=C(Nc1ccc(Cl)c(S(=O)(=O)N2CCOCC2)c1)C1CCC1,,inactive: -19.8%
Cc1ccc2c(c1)c(=O)c(C(=O)c1ccc3c(c1)OCO3)cn2Cc1cccc(F)c1,"inconclusive [inhibitor, single point]",
Cc1c(NC(=O)Nc2ccc(Cl)c(Cl)c2)c(=O)n(-c2ccccc2)n1C,"inconclusive [inhibitor, partial curve]",
COc1ccc(NC(=O)N(C2CCCCC2)C(C)c2ccco2)c(OC)c1 (centres undefined),"inconclusive [inhibitor, single point]",
CCN(C(=O)CSc1nnc(Nc2ccccc2)s1)C1CCS(=O)(=O)C1 (centres undefined),,inactive: -3.13%
CCN(CC(=O)N1CCN(c2ccccc2)CC1)S(=O)(=O)c1ccc(C)cc1,"inconclusive [inhibitor, single point]",
CC(=O)OC1c2ccccc2C(=O)N1Cc1ccccc1 (centres undefined),,inactive: -8.68%
O=C(NC1CC1)c1ccc(COc2ccc(F)cc2)o1,"inconclusive [inhibitor, single point]",
CC(C)CNC(=O)C1(C)CCCN1Cc1ccccc1OC(F)F (centres undefined),active: 20.6 µM,
Cc1nc2ncnn2c(C)c1CCC(=O)NCCc1ccccc1,"inconclusive [inhibitor, single point]",

SMILES,Potency,"activity change, negative = growth inhibition"
CCc1nc2c(OCCC3CCCCC3)cccn2c1N(C)C(=O)CC(C)C,active: 20.6 µM,
CN1CC(=O)N(C)c2ncn(Cc3ccccc3)c2C1=O,,inactive: -2.27%
Cn1c(SCC(=O)Nc2ccc3cn[nH]c3c2)nnc1-c1cccs1,"inconclusive [inhibitor, single point]",
CCC(=O)n1nc(NCc2ccccc2OC)nc1NCc1ccccc1OC,"inconclusive [inhibitor, single point]",
COC1=CC(=O)C(O)=C/C1=C\C=C\c1ccccc1,active: 2.59 µM,
Cn1cc(CN2CCCC(CO)(Cc3ccccc3)C2)cn1 (centres undefined),,inactive: -13.1%
Cc1ccccc1-n1c(C)cc(/C=C2\NC(=O)NC2=O)c1C,"inconclusive [inhibitor, single point]",
COc1ccc(N(C)S(=O)(=O)c2cccc(C(=O)OC(C)C(=O)NC3CCCCC3C)c2)cc1 (centres undefined),"inconclusive [inhibitor, single point]",
CSc1nc(C)c2c(n1)N(c1ccc(C(C)C)cc1)CC2,"inconclusive [inhibitor, single point]",
S=C(NCCc1ccc(Cl)cc1)NC1CCCC1,"inconclusive [inhibitor, single point]",
CCN(CC)CCNC(=S)Nc1ccc2nc(N3CCCC3)cc(C)c2c1,active: 13 µM,
CCc1nnc(NC(=O)C2=CCN(S(=O)(=O)c3ccccc3)CC2)s1,,inactive: -12%
CCCc1nn2c(=O)cc(COC(=O)c3ccc(NC(=O)CCc4ccccc4)cc3)nc2s1,,inactive: -2.4%
O=C(NC(c1ccccc1)c1ccsc1)C1CCN(CCOc2ccc(Cl)cc2Cl)CC1 (centres undefined),"inconclusive [inhibitor, single point]",
COc1ccc(N2C(=O)CC(C#N)=C2N)cc1,,inactive: 11.3%
CCc1ccc2oc(-c3cccc(NC(=O)c4cc5ccccc5o4)c3)nc2c1,"inconclusive [inhibitor, single point]",
O=C(Nc1ccccc1N1CCOCC1)c1ccc(Cl)c(S(=O)(=O)N2CCCC2)c1,"inconclusive [inhibitor, single point]",
Cc1cccn2c(=O)c(/C=C(\C#N)C(=O)NC3CCS(=O)(=O)C3)c(Oc3ccccc3Cl)nc12 (centres undefined),"inconclusive [inhibitor, single point]",
O=C(NCC1CC1)C1(C(F)(F)F)CC(CCc2ccccc2)CCCO1 (centres undefined),active: 20.6 µM,
CC1=C(C(=O)Nc2ccccc2)C(c2ccccc2)N2C(=O)CSC2=N1 (centres undefined),"inconclusive [inhibitor, single point]",
CCCCc1c(-c2ccccc2OC)ncn1CCc1ccccc1Cl,active: 7.31 µM,
O=C1NC[C@@H](CCCCN2CCN(CCc3ccccc3)C(=O)C2=O)N(Cc2ccccc2)C1=O,,inactive: -6.85%
COc1ccc(C(=O)NCC(c2ccco2)N2CCCC2)cc1S(=O)(=O)N1CCCCC1C (centres undefined),,inactive: -22.7%
Cc1ccc2nc(N3CCN(c4cccc(Cl)c4)CC3)c3nnnn3c2c1,"inconclusive [inhibitor, single point]",
